# Assay results as given in ChEMBL document CHEMBL4888484, “Replenishing the malaria drug discovery pipeline: Screening and hit evaluation of the MMV Hit Generation Library 1 (HGL1) against asexual blood stage Plasmodium falciparum ,using a nano luciferase reporter read-out” (2022).
# About 540 (0.36%) of roughly 150,000 compounds showed an effect of 50% or more. This is one part of the list.
# Test system: Plasmodium falciparum
# Test: Primary screen in NF54 nanoGlo assay, in single point, at 2uM, 72h; a lower Z score goes with more inhibition
# Assay type: functional, Erythrocyte
# Conditions: timepoint 72 hour
Structure (SMILES),% Inhibition,Z score
O=c1[nH]c2ccccc2c2nc(-c3cccc(S(=O)(=O)N4CCCCC4)c3)nn12,-7%,0.72
CC1CCC(N(C)C(=O)[C@@H]2CNCCN2C)CC1 (stereo partly drawn),-8%,0.99
Cc1cnc([C@@H](NC2CCN(CC3CC3)CC2)C2CC2)s1,1%,-0.08
COc1ccccc1CC(=O)N1CCNC[C@H]1C(=O)N1CCOCC1,-2%,0.31
CC1CCN(C(=O)N2CCN3C(=O)NCC3C2)C1 (stereo not drawn),-18%,2.19
O=C(C1CCCCCC1)N1CC2CCC1C2 (stereo not drawn),1%,-0.17
CC(C)n1cc(C(=O)N[C@@H](C)CCc2cccn2C)nn1,-10%,1.2
Cc1cccc(C(=O)NC(C)C(=O)N2CCC(N3CCCC3C(N)=O)CC2)c1 (stereo not drawn),-5%,0.65
O=S(=O)(Nc1cc(Br)c(F)cc1F)C1CC1,-5%,0.78
O=C(CCc1nc2ccccc2[nH]1)N1CCCCC[C@@H]1CO,4%,-0.51
OCCOc1nc(OCCO)nc(OCCO)n1,-34%,4.04
O=c1[nH]nc(CCNc2ccccc2)n1-c1ccc2c(c1)OCO2,-7%,0.67
CCCCCNC(=O)c1n[nH]c2c1CN(C(=O)Cc1cccc(Cl)c1)CC2,-9%,1.06
COCCN(C)Cc1nc(-c2ccc(-c3ccccc3)cc2)oc1C,8%,-1.08
Cc1cc(NCCN2CCC[C@H](CO)C2)nc(-c2ccccc2)n1,-9%,0.87
CNc1nc(C(N)=O)c(NC(=O)c2ccc(OC)c(C)c2)s1,-3%,0.53
CC(C)N(CC(F)(F)F)C(=O)Cn1nccc1-c1ccncc1,1%,-0.15
c1ccc(Cn2ccnc2CN(CC2CC2)c2ccccc2)cc1,9%,-1.28
O=C(CCc1cn[nH]c1)N1CCC[C@H](c2nnc3ccccn23)C1,4%,-0.9
CCc1noc([C@]2(O)CCN(C(=O)N(C)CC(C)(C)C)C2)n1,-3%,0.51
CC1(C)N=C(c2ccccc2)C(=O)N1CC(=O)N1CCN(c2ccccc2)CC1,-2%,0.28
CS(=O)(=O)N1CCN(C(=O)c2ccccc2O)Cc2ccccc21,-18%,2.19
CCCN(C(=O)c1ccc2[nH]nnc2c1)[C@@H](C)c1cc2ccccc2o1,-14%,1.97
CCc1ccnc(C(=O)NC(C)(C)c2nc(C)no2)c1,-9%,1.2
